According to PMC9911399, “Two distinct binding modes provide the RNA-binding protein RbFox with extraordinary sequence specificity”:
Residue numbers refer to the chain shown, from its start. The list shows a part of the results.

T1: RBFOX1 RRM RbFoxmut (Fox-RRM*) (Homo sapiens, UniProt Q9NWB1 109-208, R118D;E147R;N151S;E152T)
T1 sequence: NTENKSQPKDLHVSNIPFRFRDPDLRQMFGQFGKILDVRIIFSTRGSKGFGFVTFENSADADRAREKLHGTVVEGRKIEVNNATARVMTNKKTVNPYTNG

B1: GGGCCUC (DNA:RNA)
RNA: GGGAGACCGGAAUUCAGAUUGUCCGGGCCUCUUAAAUCCCGUCGUAGCCACCA
DNA 1: CAATCTGAATTCCGGTCTCCC
DNA 2: TGGTGGCTACGACGGGATT
B2: CAAGCCA (DNA:RNA)
RNA: B1 RNA with G25C, G26A, G27A, C28G, U30C, C31A
DNA 1: CAATCTGAATTCCGGTCTCCC
DNA 2: TGGTGGCTACGACGGGATT
B3: CCUACAC (DNA:RNA)
RNA: B1 RNA with G25C, G26C, G27U, C28A, U30A
DNA 1: CAATCTGAATTCCGGTCTCCC
DNA 2: TGGTGGCTACGACGGGATT
B4: UUCAGUA (DNA:RNA)
RNA: B1 RNA with G25U, G26U, G27C, C28A, C29G, C31A
DNA 1: CAATCTGAATTCCGGTCTCCC
DNA 2: TGGTGGCTACGACGGGATT
B5: ACAACCU (DNA:RNA)
RNA: B1 RNA with G25A, G26C, G27A, C28A, U30C, C31U
DNA 1: CAATCTGAATTCCGGTCTCCC
DNA 2: TGGTGGCTACGACGGGATT
B6: UCUCACC (DNA:RNA)
RNA: B1 RNA with G25U, G26C, G27U, C29A, U30C
DNA 1: CAATCTGAATTCCGGTCTCCC
DNA 2: TGGTGGCTACGACGGGATT
B7: GUAUCGC (DNA:RNA)
RNA: B1 RNA with G26U, G27A, C28U, U30G
DNA 1: CAATCTGAATTCCGGTCTCCC
DNA 2: TGGTGGCTACGACGGGATT
B8: AUGUCGA (DNA:RNA)
RNA: B1 RNA with G25A, G26U, C28U, U30G, C31A
DNA 1: CAATCTGAATTCCGGTCTCCC
DNA 2: TGGTGGCTACGACGGGATT
B9: UAUUACU (DNA:RNA)
RNA: GGGAGACCGGAAUUCAGAUUGUCCUAUUACUUUAAAUCCCGUCGUAGCCACCA
DNA 1: CAATCTGAATTCCGGTCTCCC
DNA 2: TGGTGGCTACGACGGGATT
B10: UUCAUCU (DNA:RNA)
RNA: B9 RNA with A26U, U27C, U28A, A29U
DNA 1: CAATCTGAATTCCGGTCTCCC
DNA 2: TGGTGGCTACGACGGGATT
B11: CGGUGCU (DNA:RNA)
RNA: B9 RNA with U25C, A26G, U27G, A29G
DNA 1: CAATCTGAATTCCGGTCTCCC
DNA 2: TGGTGGCTACGACGGGATT
B12: GAAAGGC (DNA:RNA)
RNA: B1 RNA with G26A, G27A, C28A, C29G, U30G
DNA 1: CAATCTGAATTCCGGTCTCCC
DNA 2: TGGTGGCTACGACGGGATT
B13: GCAGGCG (DNA:RNA)
RNA: B1 RNA with G26C, G27A, C28G, C29G, U30C, C31G
DNA 1: CAATCTGAATTCCGGTCTCCC
DNA 2: TGGTGGCTACGACGGGATT
B14: UGAACCU (DNA:RNA)
RNA: B9 RNA with A26G, U27A, U28A, A29C
DNA 1: CAATCTGAATTCCGGTCTCCC
DNA 2: TGGTGGCTACGACGGGATT
B15: GCGUCUA (DNA:RNA)
RNA: B1 RNA with G26C, C28U, C31A
DNA 1: CAATCTGAATTCCGGTCTCCC
DNA 2: TGGTGGCTACGACGGGATT
B16: AAGAAAC (DNA:RNA)
RNA: B1 RNA with G25A, G26A, C28A, C29A, U30A
DNA 1: CAATCTGAATTCCGGTCTCCC
DNA 2: TGGTGGCTACGACGGGATT
B17: CGUGGCG (DNA:RNA)
RNA: B9 RNA with U25C, A26G, U28G, A29G, U31G
DNA 1: CAATCTGAATTCCGGTCTCCC
DNA 2: TGGTGGCTACGACGGGATT
B18: CGUGUAG (DNA:RNA)
RNA: B1 RNA with G25C, G27U, C28G, C29U, U30A, C31G
DNA 1: CAATCTGAATTCCGGTCTCCC
DNA 2: TGGTGGCTACGACGGGATT
B19: UGGGCAA (DNA:RNA)
RNA: B1 RNA with G25U, C28G, U30A, C31A
DNA 1: CAATCTGAATTCCGGTCTCCC
DNA 2: TGGTGGCTACGACGGGATT
B20: UGUGACU (DNA:RNA)
RNA: B9 RNA with A26G, U28G
DNA 1: CAATCTGAATTCCGGTCTCCC
DNA 2: TGGTGGCTACGACGGGATT
B21: AUGGCUU (DNA:RNA)
RNA: B1 RNA with G25A, G26U, C28G, C31U
DNA 1: CAATCTGAATTCCGGTCTCCC
DNA 2: TGGTGGCTACGACGGGATT
B22: AUGUCUG (DNA:RNA)
RNA: B1 RNA with G25A, G26U, C28U, C31G
DNA 1: CAATCTGAATTCCGGTCTCCC
DNA 2: TGGTGGCTACGACGGGATT
B23: GGCGCGA (DNA:RNA)
RNA: B1 RNA with G27C, C28G, U30G, C31A
DNA 1: CAATCTGAATTCCGGTCTCCC
DNA 2: TGGTGGCTACGACGGGATT
B24: AAGUCGA (DNA:RNA)
RNA: B1 RNA with G25A, G26A, C28U, U30G, C31A
DNA 1: CAATCTGAATTCCGGTCTCCC
DNA 2: TGGTGGCTACGACGGGATT
B25: UUGGUUU (DNA:RNA)
RNA: B1 RNA with G25U, G26U, C28G, C29U, C31U
DNA 1: CAATCTGAATTCCGGTCTCCC
DNA 2: TGGTGGCTACGACGGGATT
B26: GACCAGU (DNA:RNA)
RNA: B9 RNA with U25G, U27C, U28C, C30G
DNA 1: CAATCTGAATTCCGGTCTCCC
DNA 2: TGGTGGCTACGACGGGATT
B27: UAUAGAU (DNA:RNA)
RNA: B9 RNA with U28A, A29G, C30A
DNA 1: CAATCTGAATTCCGGTCTCCC
DNA 2: TGGTGGCTACGACGGGATT
B28: AUCGAUA (DNA:RNA)
RNA: B1 RNA with G25A, G26U, G27C, C28G, C29A, C31A
DNA 1: CAATCTGAATTCCGGTCTCCC
DNA 2: TGGTGGCTACGACGGGATT
B29: UCAACCU (DNA:RNA)
RNA: B9 RNA with A26C, U27A, U28A, A29C
DNA 1: CAATCTGAATTCCGGTCTCCC
DNA 2: TGGTGGCTACGACGGGATT
B30: CAAGAGU (DNA:RNA)
RNA: B9 RNA with U25C, U27A, U28G, C30G
DNA 1: CAATCTGAATTCCGGTCTCCC
DNA 2: TGGTGGCTACGACGGGATT
B31: GCUCCAG (DNA:RNA)
RNA: B1 RNA with G26C, G27U, U30A, C31G
DNA 1: CAATCTGAATTCCGGTCTCCC
DNA 2: TGGTGGCTACGACGGGATT

Each binder was assayed against T1, RBFOX1 RRM RbFoxmut (Fox-RRM*) (assay: EMSA; HiTS-Eq, 1 nM pool, 10 min; buffer printed only for the single-RNA assays: 10 mM Tris pH 7.5, 150 mM NaCl, 3.4 mM EDTA, 0.001% NP-40, 30 C). Conditions: tags: His6 N-terminal (pET28a); label: 5' 32P.
Procedure, shortened: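 Purified RbFox RRM, wild type or mutant, was incubated for 10 min in 50 µL with 1 nM of a 5′-radiolabelled RNA pool carrying 7 randomized nucleotides, whose flanks were annealed to DNA oligonucleotides, over a series of increasing protein concentrations. Unbound RNA was resolved on 8% native PAGE, cut out, reverse-transcribed, barcoded by PCR and sequenced on an Illumina HiSeq 2500. Relative association constants were derived from changes in read counts for each RNA species versus the control reaction and normalised to the cognate motif.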
B1 was tested, and the binding signal was 0.122 KA relative to UGCAUGU.
In the case of B2, the binding signal is reported as 0.079 KA relative to UGCAUGU.
B3 was tested, and the binding signal was 0.107 KA relative to UGCAUGU.
For B4, the binding signal was 0.118 KA relative to UGCAUGU.
B5 was tested, and the binding signal was 0.064 KA relative to UGCAUGU.
For B6, the binding signal was 0.0699 KA relative to UGCAUGU.
For B7, the binding signal was 0.312 KA relative to UGCAUGU.
With B8 the binding signal was 0.138 KA relative to UGCAUGU.
For B9, the binding signal was 0.109 KA relative to UGCAUGU.
For B10, the binding signal was 0.0739 KA relative to UGCAUGU.
B11 was tested, and the binding signal was 0.0738 KA relative to UGCAUGU.
In the case of B12, the binding signal is reported as 0.0521 KA relative to UGCAUGU.
With B13 the binding signal was 0.122 KA relative to UGCAUGU.
B14 was tested, and the binding signal was 0.121 KA relative to UGCAUGU.
For B15, the binding signal was 0.099 KA relative to UGCAUGU.
B16 was tested, and the binding signal was 0.08 KA relative to UGCAUGU.
With B17 the binding signal was 0.158 KA relative to UGCAUGU.
With B18 the binding signal was 0.138 KA relative to UGCAUGU.
With B19 the binding signal was 0.0613 KA relative to UGCAUGU.
B20 was tested, and the binding signal was 0.0758 KA relative to UGCAUGU.
For B21, the binding signal was 0.113 KA relative to UGCAUGU.
For B22, the binding signal was 0.175 KA relative to UGCAUGU.
For B23, the binding signal was 0.0964 KA relative to UGCAUGU.
With B24 the binding signal was 0.0793 KA relative to UGCAUGU.
With B25 the binding signal was 0.1 KA relative to UGCAUGU.
For B26, the binding signal was 0.0748 KA relative to UGCAUGU.
In the case of B27, the binding signal is reported as 0.0672 KA relative to UGCAUGU.
For B28, the binding signal was 0.099 KA relative to UGCAUGU.
B29 was tested, and the binding signal was 0.0531 KA relative to UGCAUGU.
In the case of B30, the binding signal is reported as 0.124 KA relative to UGCAUGU.
For B31, the binding signal was 0.113 KA relative to UGCAUGU.
